# In ChEMBL document CHEMBL4888484, “Replenishing the malaria drug discovery pipeline: Screening and hit evaluation of the MMV Hit Generation Library 1 (HGL1) against asexual blood stage Plasmodium falciparum ,using a nano luciferase reporter read-out” (2022):
# About 540 (0.36%) of roughly 150,000 compounds showed an effect of 50% or more. The list shows a part of the results.
# Test system: Plasmodium falciparum
# Experiment: Primary screen in NF54 nanoGlo assay, in single point, at 2uM, 72h; a lower Z score goes with more inhibition
# Type: functional, Erythrocyte
# Conditions: timepoint 72 hour
Compound,% Inhibition [%],Z score
COCc1noc(CN2CCN(c3ccncc3)C[C@@H](O)C2)n1,-7,0.8
Cc1cccc(CN(CCc2c[nH]c3ccccc23)Cc2nc(C(=O)NC[C@H]3CCCO3)co2)c1,-2,0.36
COc1ccccc1CCNC(N)=NC1CCCC1,-5,1.02
CC1CCc2sc(NC(=O)c3ncn(C)n3)c(C#N)c2C1C (stereo not drawn),-6,1.05
CCc1nnc(CNC(=O)c2cc(C(C)C)n3ncnc3n2)s1,7,-1.03
CCCCc1nn(CC(=O)N[C@@H]2COC3(CCCC3)C2)c(=O)n1CC,1,-0.27
CCn1cc(S(=O)(=O)N2CC(Nc3ccccc3)C2)cn1,2,-0.29
O=C(Nc1cn[nH]c1)[C@H]1CCCN(C(=O)N2CCc3sccc3C2)C1,-22,3.43
COc1c(O)cnn(C2CCCCC2)c1=O,-6,1.19
CCOc1ncccc1Cn1cc(-c2cc3c(cc2C)OCO3)nn1,-5,0.95
Cc1cnc(NCCNC(=O)OCc2ccccc2)nc1,-4,0.49
COc1ccccc1-c1cc(-c2ccccc2OC)n(-c2nc(-c3ccc(Cl)cc3)cs2)n1,33,-3.73
Cc1ccc(CCN(CC#N)S(=O)(=O)N(C)C)cc1,-1,0.19
CC(C)NC(=O)Cc1noc([C@H]2CCCOCC2)n1,-2,0.39
O=C(C[C@@H]1CCN2C[C@@H]1/C=C/COc1ccc(Br)cc1CNCC2=O)NCc1ccncc1,0,-0.04
COc1ccccc1C1CN2C(=O)N(c3ccc(S(=O)(=O)c4ccc(C)cc4)cc3)C(=O)[C@]2(C)c2[nH]c3ccccc3c21 (stereo partly drawn),-12,1.04
Cc1cc(N2CCCO[C@@H](C)C2)nc(-c2cccs2)n1,1,-0.05
CCCC1(CCC)NC(=O)N(Cc2cn3cc(Cl)ccc3n2)C1=O,-11,1.1
Cc1ccc(Cn2c(=O)c3sccc3n(CC(=O)Nc3nc4ccccc4s3)c2=O)cc1C,-8,0.92
O=C(c1cn(Cc2cccs2)nn1)N1CCc2ccc(F)cc2C1,-14,2.67
COc1cccc([C@H]2CC(O)=Nc3c2ncn3-c2cccnc2)c1OC(C)C,28,-3.13
C/C=C(\C)CN1CCC[C@H](CNC(=O)C2CCOCC2)C1,-11,2.09
CC(C)c1ccc(-n2nc(C(=O)NC3CC3)c(=O)n(Cc3cccc(C(F)(F)F)c3)c2=O)cc1,-6,0.75
Clc1cccc(-c2ccc(CNC3CCCCC3)o2)c1,-9,1.31
Cc1cccc(NCC(=O)Nc2nc(-c3ccc(Cl)cc3)cc(-c3ccc(Cl)cc3)n2)c1C,-10,1.6
CCOCCC(=O)Nc1ccc2c(c1)C(C)(C)CC2(C)C,-8,1.42
CN(c1nccn2c(=O)n(CC(=O)Nc3ccccc3F)nc12)C1CCCCC1,-13,1.29

Compound,% Inhibition [%],Z score
O=C1CCCC1C1CCCN1C(=O)CCc1ccccn1 (stereo not drawn),9,-1.22
CCC1(CNC(=O)Nc2ccncc2F)CCC1,2,-0.34
CC1CC1C(=O)NCCC(=O)NCc1nc(-c2ccncc2)no1 (stereo not drawn),-3,0.51
C[C@H]1CCCCN1C(=O)CN1C(=O)COc2ccc(Cl)cc21,-6,0.99
CC1=C(C)C[C@@H](C(=O)NS(=O)(=O)CC(F)(F)F)CC1,-5,0.91
O=C(O)C1(O)CCN(Cc2cc(Cl)ccc2OCC2CC2)CC1,-4,0.54
Cc1ccc(CNS(=O)(=O)c2ccc(-c3nnc(C4CC4)o3)s2)cc1,-6,1.2
O=c1ccn(-c2ccccn2)n1CC[C@H]1CCCO1,2,-0.42
CN(C)c1ncccc1O[C@H]1CCN(S(=O)(=O)N2CCC2)C1,-2,0.38
CC[C@H](OC1CCCC1)C(=O)N1CCC2(C1)OCCO2,-2,0.27
O=C(Nc1cccc(F)c1)c1cc2c(s1)CCCCC2,-12,1.08
COc1ccccc1C(C#N)NC(=O)C(C)N1CCCCCC1 (stereo not drawn),1,-0.24
CC(=O)NCCN(Cc1ccccc1)C(=O)c1cc2ccccc2n1C,28,-3.17
CCOC(=O)[C@H]1CCCN(C(=O)c2nn(-c3ccc(C)c(C)c3)c(=O)n(Cc3cccc(C)c3)c2=O)C1,-10,1.2
CN1CCCCc2c1nc1ccccc1c2O,-19,2.5
Cc1cncc(CNC(=O)[C@@H]2Cc3ccccc3O[C@H]2C(F)F)c1,-4,0.52
CCN1C(=O)N(c2nc3ccccc3s2)C(=O)[C@@H]1Cc1ccccc1,-7,0.88
CC(C)CNC(=O)CCN(c1nc(C2CC2)nc2cc(Cl)ccc12)C(C)C,-6,1.11
CC(C)[C@H]1OCC[C@@H]1CNC(=O)CCn1ccnn1,-9,1.87
COc1ccc(-c2cn(-c3ccc(OC)cc3)c(NC(=O)CN(C[C@H]3CCCO3)C(=O)c3ccc(C)cc3)n2)cc1,-7,1.1
OCCN(Cc1nsc2ccccc12)C1CCC1,-14,1.59
COc1ccc(Cl)cc1N1CCC(NC(=O)NCC2CCOC2(C)C)C1 (stereo not drawn),-6,0.62
Cc1nn(C)cc1C(=O)NC[C@H]1CCCN(C(=O)OCc2ccccc2)C1,-12,1.51
CC(=O)N(C)CC(=O)NCc1ccc(Br)cc1Cl,-14,1.25
c1nc(C2CC2)oc1-c1cn2c(n1)CCC2,2,-0.3
O=C(NC1CCN(c2nc3ccccc3o2)CC1)c1ccccc1,-45,5.33
CC(C)(C)c1cnc(CN[C@@H]2CCCC[C@H]2S(C)(=O)=O)s1,-7,0.69
